According to PubChem BioAssay AID361 (National Center for Advancing Translational Sciences (NCATS), 2006):
About 600 (1.2%) of roughly 51,000 compounds were called active. Inconclusive results, whose numbers are uncertain, are shown with a selection of clear calls. Rule as the data show it: active = potency below about 11 µM; inconclusive = mostly about 12 µM to 25 µM; inactive = weaker than that;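 the screen sought inhibitors and activators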. Potencies of inconclusive entries are left out as doubtful fits.

tested on: pyruvate kinase (Bacillus stearothermophilus); assay: Pyruvate Kinase; conditions: purified pyruvate kinase, luminescence ATP production; ribose 5-phosphate activator present at AC10
In short: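 Compounds were mixed with substrate buffer (pH 7.2, 2 mM PEP, 0.1 mM ADP, 0.7 nM ribose 5-phosphate) and then with 10 nM enzyme. After 2 h at room temperature, a luciferase stop/detection reagent was added and luminescence measured.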
Potency is read from the fitted curve at half-maximal effect.

Compound | Potency
O=C(NCc1ccccn1)c1c(O)c2cccc3c2n(c1=O)CC3 | inconclusive [increasing]
Cc1ccc(S(=O)(=O)NCc2ccco2)c(C)c1C | inconclusive [increasing]
COc1ccc(CC(=O)Nc2cccc(-c3nnc(-c4ccc(C)cc4)o3)c2)cc1OC | inactive
Nc1nc2n(n1)C(c1ccco1)CC(c1ccc(Cl)cc1Cl)N2 (configuration not stated) | inconclusive [increasing]
CCC(C)(C)n1nnnc1C(C(C)C)N1CCSCC1 (configuration not stated) | inactive: > 57 µM
O=S(=O)(Nc1cccc2ncccc12)c1cccs1 | inconclusive [increasing]
Nc1c(S(=O)(=O)c2cccc(Cl)c2)c2nc3ccccc3nc2n1/N=C/c1ccc(O)c(O)c1 | inconclusive [decreasing]
Cc1cc(C)c(C)c(S(=O)(=O)Nc2ccccc2C(=O)NCCCn2ccnc2)c1C | inconclusive [increasing]
OC(CN1C2=NCCN2c2ccccc21)c1ccccc1 (configuration not stated) | inactive: > 57 µM
O=C1c2ccccc2NC(c2ccc(F)cc2)N1Cc1ccco1 (configuration not stated) | inactive: > 57 µM
O=C(Nc1ccc(Cl)cn1)C1CCCN1S(=O)(=O)c1ccc(Cl)cc1 (configuration not stated) | inconclusive [increasing]
O=c1[nH]c(N2CCN(c3ccccc3)CC2)nc2c1CCC2 | inactive: > 57 µM
Cc1c2c(n3c(nc4ccccc43)c1C#N)N(Cc1cccnc1)CC2 | inactive: > 57 µM
CCN(CC)CCCNC(=O)c1sc2nc(-c3ccc(F)cc3)cn2c1C | inconclusive [decreasing]
CN1/C(=N\O)c2cccc3cccc1c23 | inconclusive [increasing]
COC(=O)c1c(NC(=O)CSc2nnnn2-c2ccc3c(c2)OCO3)sc(C)c1C | inactive: > 57 µM
O=C(Cn1nnc(-c2ccccc2-n2cnnn2)n1)c1ccccc1 | inconclusive [increasing]
CN(O)/C=c1/ccc2c(n1)C(=O)C=CC=2 | inactive: > 57 µM
CCOC(=O)COn1c(=O)c(-c2ccc(OC)c(OC)c2)[n+]([O-])c2ccccc21 | inactive: > 25.6 µM
CCc1ccc(NS(=O)(=O)c2ccc3[nH]cc(C(=O)N4CCCCC4)c(=O)c3c2)cc1 | inconclusive [increasing]
Cc1ccc(S(=O)(=O)N2CCCC2C(=O)OCc2nc3ccccc3s2)cc1 (configuration not stated) | inconclusive [increasing]

Compound | Potency
Cc1cccc(-c2cc3nc4c(c(N5CCOCC5)n3n2)CCCC4)c1 | inconclusive [decreasing]
O=C(Nc1cccc(-c2cnc3ccccc3n2)c1)c1ccco1 | inconclusive [decreasing]
COc1cccc(CN2CCCN(S(=O)(=O)c3ccc(Br)cc3)CC2)c1 | inactive: > 57 µM
Nc1nc(-c2ccc3c(c2)CCCC3)cs1 | inconclusive [decreasing]
O=c1c(-c2nc3ccccc3o2)c2oc3ccccc3n2c2ccccc12 | active: 5.41 µM
CCOc1ccc(-c2noc(-c3cccnc3)n2)cc1OC | inconclusive [decreasing]
Cc1cc2ccccc2n1CCNC(=O)c1ccc(S(=O)(=O)N2CCOCC2)cc1 | inconclusive [increasing]
Cc1ccccc1NS(=O)(=O)c1ccc2[nH]cc(C(=O)NCCCN3CCOCC3)c(=O)c2c1 | inconclusive [increasing]
CCN1CCN(c2oc(-c3ccc(OC)cc3)nc2C#N)CC1 | inactive
COC(=O)CSc1nnc(-c2ccncc2)n1N | inactive: > 57 µM
Nc1cccc(-c2nc3ccc(N)cc3s2)c1 | active: 0.711 µM
CCN1CCc2c(C#N)c(N3CCOCC3)nc(NCCO)c2C1 | inactive: > 25.6 µM
O=C(NC1=NC2CCCCC2N1)c1ccccc1 (configuration not stated) | inconclusive [decreasing]
CN(C)S(=O)(=O)c1cc(C(=O)NCCCn2ccc3ccccc32)ccc1Cl | inactive: > 57 µM
COc1ccc2c(c1OC)C(=O)N(c1cccc(C)c1)C2 | inconclusive [decreasing]
Brc1ccc(-c2cnc(-c3cccs3)o2)cc1 | active: 1.31 µM
CCOC(=O)C1CCN(c2ncnc3c2oc2ccc(Cl)cc23)CC1 | inconclusive [decreasing]
N#Cc1nc(-c2ccc(Cl)cc2)oc1N1CCCCC1 | active: 5.06 µM
COc1nc(-c2ccccc2)ccc1-c1noc(-c2cccnc2)n1 | inactive: > 57 µM
O=C1CCN2C=Nc3cccc4ccc1c2c34 | inconclusive [decreasing]
Cc1ccc2nc(-c3ccc4c(c3)OCCO4)cc(C(=O)O)c2c1 | inconclusive [decreasing]

Compound | Potency
O=C(CSc1nnnn1C1CCCCC1)Nc1nc2c(s1)CCCC2 | inactive: > 57 µM
Cc1ccc2c(c1)-c1cc(C)nn1C(c1ccc3c(c1)OCO3)N2 (configuration not stated) | inconclusive [decreasing]
N#Cc1c(-c2ccc(Cl)cc2Cl)nc2n(c1=O)CCS2 | inconclusive [increasing]
COc1ccc(C2C(C(=O)N3CCOCC3)=C(C)NC3=C2C(=O)CC(C)(C)C3)c(OC)c1 (configuration not stated) | inactive: > 57 µM
CCOC(=O)c1snc(C(=O)NC2CCCCC2)c1N | inactive: > 11.4 µM
O=C(Nc1ccc2c(c1)OCCO2)C1CCCN1S(=O)(=O)c1ccc(Cl)cc1 (configuration not stated) | active: 11 µM
c1ccc(Nc2nc(-c3cccnc3)cs2)nc1 | inconclusive [decreasing]
COCCCNS(=O)(=O)c1ccc2c3c(cccc13)C(=O)S2 | inconclusive [increasing]
c1ccc(CNc2nc3ccccc3[nH]2)cc1 | inconclusive [decreasing]
COc1ccc(CC(=O)OCC(=O)Nc2ncc(Cl)cc2Cl)cc1 | inconclusive [increasing]
COC(=O)C1=CN(CC2CCCO2)C=C(C(=O)OC)C1c1cc(OC)c(OC)c(OC)c1 (configuration not stated) | inactive: > 57 µM
COc1cccc(-c2cn3nc4c(nc3n2)CCCC4)c1 | active: 4.55 µM
CNC(=O)CN(c1cccc2ccccc12)S(C)(=O)=O | inconclusive [increasing]
COc1ccccc1N1CCN(S(=O)(=O)c2cccc3nsnc23)CC1 | active: 7.36 µM
Cc1ccc(S(=O)(=O)N2CCCC(C(=O)NCc3cccnc3)C2)cc1Cl (configuration not stated) | inconclusive [increasing]
Nc1nncn1C(=O)c1c(Cl)cccc1Cl | inconclusive [increasing]
COc1ccc(-c2cc(C(=O)N3CCN(c4ccccn4)CC3)c3ccccc3n2)cc1 | active: 2.16 µM
CC(=O)c1cccc(NC(=O)CCNS(=O)(=O)c2cccc3nsnc23)c1 | inconclusive [increasing]
O=C(Nc1ccc(N2CCOCC2)cc1)C1CCCN(S(=O)(=O)c2cccc(C(F)(F)F)c2)C1 (configuration not stated) | inactive: > 57 µM
COc1ccc(OC)c2[nH]c(=O)c(CCNC(=O)c3ccc(S(=O)(=O)N4CCCC4)cc3)cc12 | inconclusive [decreasing]
NS(=O)(=O)c1cccc2cccnc12 | inconclusive [increasing]

Compound | Potency
CCOC(=O)C1CCCN(S(=O)(=O)c2cccc3cccnc23)C1 (configuration not stated) | inconclusive [increasing]
O=C(Nc1ccc2nc(-c3ccccc3)oc2c1)c1ccco1 | inconclusive [decreasing]
COc1ccc(-c2csc(NC(C)=O)n2)cc1OC | inconclusive [decreasing]
CC(C)(C)n1ncc2c(=O)n(CC(=O)OCc3ccccc3)cnc21 | active: 0.54 µM
CCCNC(=O)c1ccccc1NC(=O)CN(c1ccccc1OCC)S(C)(=O)=O | inactive: > 57 µM
NC(=O)c1ccc(-c2ccc(Br)cc2)o1 | active: 5.09 µM
COC(=O)c1ccc(-c2cc(C(=O)O)c3cc4c(cc3n2)OCCO4)cc1 | inconclusive [decreasing]
Cc1ccc(-c2cn(S(=O)(=O)c3cccc4nsnc34)nc2N)cc1 | inconclusive [increasing]
Nc1ccc(-c2cnc(-c3ccc(N)cc3)nc2)cc1 | inconclusive [decreasing]
CCOc1ccccc1C1CC(=O)NC(SCC)=C1C#N (configuration not stated) | inconclusive [increasing]
CCN1CCN(C(=O)CCCCCn2c(=O)[nH]c3cc(C(=O)OC)ccc3c2=O)CC1 | inactive: > 57 µM
Fc1ccc(-c2cc3nc(-c4ccccc4)cc(N4CCOCC4)n3n2)cc1 | inconclusive [decreasing]
Clc1ccc2c(c1)C1OCCC1C(c1ccco1)N2 (configuration not stated) | active: 9.64 µM
Nn1c(COc2cccc(Br)c2)nnc1SCC(=O)N1CCc2ccccc2C1 | inconclusive [increasing]
CSCCNC(=O)c1ccc(C(C)(C)C)cc1 | inconclusive [decreasing]
O=C(Nc1ccc2c(c1)OCO2)c1noc2c1CCCCC2 | inconclusive [decreasing]
O=C(NCc1cccs1)c1nc2c(nnn2Cc2ccccc2Cl)c(=O)[nH]1 | inconclusive [increasing]
N#CCCn1c(-c2nonc2NC(=O)c2ccccc2Cl)nc2ccccc21 | inactive: > 57 µM
COc1ccc(N2CCN(C(=O)c3ccc4c(=O)n(CC5CCCO5)c(=O)[nH]c4c3)CC2)cc1 (configuration not stated) | inactive: > 57 µM
